Among the data in PubChem BioAssay AID488969 (Vanderbilt High Throughput Screening Facility, 2010) are z-score values, retold here.

Molecules are shown by their SMILES. Over roughly 110,000 compounds, “z-score” has its median near -0.1; the highest 2% begin near 2. Some of the results follow. Activity calls are given as the source filed them.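 The calls were made as follows: active = z-score in the third read window above 3 or below -3; inactive = the rest.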

In this test the target is Metabotropic glutamate receptor 8 (Rattus norvegicus) (UniProt P70579). The experiment in a line: mGluR8 Gi/Go-coupled signaling modulation – cell-based, rat, thallium flux, HTS, primary screen (AID 488969). Conditions: HEK293 rat mGluR8, GIRK (G protein-gated inwardly rectifying potassium channel) thallium flux, FluoZin2; at 10 µM; stronger effect = higher value; submaximal glutamate (EC20) added with thallium.
Sequence of UniProt P70579 (P70579 whole entry, looked up): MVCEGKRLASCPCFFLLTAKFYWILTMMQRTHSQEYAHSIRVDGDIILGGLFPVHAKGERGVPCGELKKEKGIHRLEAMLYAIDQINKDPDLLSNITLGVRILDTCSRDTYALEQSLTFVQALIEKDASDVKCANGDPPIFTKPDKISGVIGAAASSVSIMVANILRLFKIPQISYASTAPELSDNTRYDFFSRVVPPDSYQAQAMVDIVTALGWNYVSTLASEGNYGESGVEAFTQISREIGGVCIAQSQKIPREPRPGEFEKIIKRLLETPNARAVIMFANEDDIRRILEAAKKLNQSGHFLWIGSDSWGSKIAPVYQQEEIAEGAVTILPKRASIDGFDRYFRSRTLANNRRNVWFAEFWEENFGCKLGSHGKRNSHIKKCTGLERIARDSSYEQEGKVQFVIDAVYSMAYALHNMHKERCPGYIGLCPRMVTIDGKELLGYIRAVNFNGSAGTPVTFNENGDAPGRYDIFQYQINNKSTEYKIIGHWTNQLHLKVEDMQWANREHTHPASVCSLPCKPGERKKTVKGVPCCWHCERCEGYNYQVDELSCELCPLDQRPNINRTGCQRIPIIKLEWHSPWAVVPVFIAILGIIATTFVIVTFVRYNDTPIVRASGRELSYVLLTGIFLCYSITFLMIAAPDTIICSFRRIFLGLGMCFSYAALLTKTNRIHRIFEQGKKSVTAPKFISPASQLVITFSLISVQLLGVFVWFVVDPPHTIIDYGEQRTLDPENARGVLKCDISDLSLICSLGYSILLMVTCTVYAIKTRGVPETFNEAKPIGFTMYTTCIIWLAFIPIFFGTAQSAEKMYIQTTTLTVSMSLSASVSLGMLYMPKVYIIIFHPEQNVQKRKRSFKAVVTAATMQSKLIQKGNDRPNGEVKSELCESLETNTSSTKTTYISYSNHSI
The molecule `CCCCn1c(=O)nc2n(-c3ccccc3)c3ccccc3cc-2c1=O` yielded a z-score of 1.87. Molecule `O=C(CC1CCCCC1)OCn1nnc2ccccc2c1=O` displayed a z-score of -0.459. The molecule `Cc1nc(SCC(=O)N2CCOCC2)c2ccsc2n1` had a z-score of 0.0134. Molecule `O=C(CCSCc1cccc(Cl)c1)NCCC1=CCCCC1` came in with a z-score of -0.242. Regarding `C=CCOc1ccc(/C=N/NC(=O)C(C)Sc2ccccn2)cc1OC` (stereo not drawn), the z-score was -0.549. Under `N#CC1(C#N)C(c2ccccc2)OC23CCCCC2C1(C#N)C(=N)O3` (stereo not drawn) stands -0.415; under `NC(=S)NNc1cc(Cl)cc(Cl)c1`, -0.273; under `CCOC(=O)c1ccc(N/C=C2/CCCC(C)C2=O)cc1` (stereo not drawn), 0.315.

`Cc1ccc[n+](C(C)C(=O)c2ccc(-c3ccccc3)cc2)c1` (stereo not drawn) gave a z-score of -0.156. `O=S(=O)(c1ccccc1)N1N=C(c2cccs2)CC1c1ccc(Br)cc1` (stereo not drawn): the z-score was -0.39. The figure for `Oc1ccc(-c2nccc(-c3cccs3)n2)cc1` is -0.133; for `C/C(=N/NC(=O)c1ccc2c(c1)OCO2)c1ccc(NC(=O)C(F)(F)F)cc1` it is -0.151. The figure for `CC(OC(=O)CNC(=O)C12CC3CC(CC(C3)C1)C2)C(=O)Nc1ccc(N2CCOCC2)cc1` (stereo not drawn) is -0.563. Regarding `O=C(Nc1ccccc1)C1=C(O)CC(c2ccoc2)CC1=Nc1ccccc1` (stereo not drawn), the z-score is -0.135.

Turning to `Cn1nnnc1SCC(=O)Nc1ccccc1C(=O)NC1CC1`, the z-score stood at 0.311. `CCCCn1c(CNC(=O)c2cccs2)nc2ccccc21` yielded a z-score of -0.664.

Turning to `COC(=O)CN(c1ccccc1)S(=O)(=O)c1ccccc1`, the z-score is -0.0839. Under `CC1CN(C(=O)c2c(Br)cnn2C)CC(C)O1` (stereo not drawn) stands -0.107; under `COc1ccc(S(=O)(=O)NC2CC(C)(C)NC(C)(C)C2)c(C)c1C`, 0.179. For the molecule `COc1ccc(C(=O)CSc2nnc(-c3ccco3)n2C)cc1`, the z-score is -0.265. The molecule `COc1cc(-c2nc(C(F)(F)F)c(OC)o2)cc(OC)c1OC` yielded a z-score of -0.583.

Molecule `COc1ccc(-c2c3c(=O)n(C)c(=O)n(C)c3c3nnc4ccccc4n23)cc1` had a z-score of -0.474. The figure for `CC(C)Oc1ccccc1-c1nc(SCC(=O)O)n[nH]1` is 0.179; for `C(=C\c1nc2ccccc2[nH]1)/c1ccccc1` it is -0.0218; for `Cn1c2ccccc2c2cnn(CC(=O)O)c(=O)c21` it is -0.137. Under `Cc1cc(N/N=C/c2ccc(O)cc2O)nc(-n2nc(C)cc2C)n1` stands -0.153; under `Cc1ccc(S(=O)(=O)Nc2nc3ccc(S(=O)(=O)N4CCCC4)cc3s2)cc1`, -0.669. Under `O=C(NC1CCCCC1)NC1(C(=O)N2CCN3CCCC3C2)CCCCC1` (stereo not drawn) stands -0.0938; under `CCc1nnc(NS(=O)(=O)c2ccc(N=Cc3c(C)[nH]n(-c4cccc(Cl)c4)c3=O)cc2)s1`, -0.666. In turn, `O=C(O)/C=C/C(=O)N1CCN(C(=O)/C=C/C(=O)O)CC1` registered a z-score of -0.184. The figure for `COc1ccc(C2NC(=S)N(c3ccccc3)C(C)=C2C(=O)Nc2ccccc2)cc1` (stereo not drawn) is 0.141; for `O=C(Oc1ccc2ccc(=O)oc2c1)N1CCOCC1` it is -0.494; for `C=CCSc1n[nH]c(-c2ccccc2)n1` it is 0.708. Molecule `O=C(COC(=O)/C=C/c1cccc(C(F)(F)F)c1)NCc1ccccc1` gave a z-score of -0.149. The molecule `OCCNc1ncnc2c1c(-c1ccccc1)c(-c1ccccc1)n2Cc1ccco1` gave a z-score of -0.463.

The molecule `Cc1sc2ncnc(SC(C)C(=O)N3c4ccccc4Sc4ccccc43)c2c1C` (stereo not drawn) showed a z-score of 2.19. The figure for `O=C(NC1CC1)c1ccc2c(c1)ncn2C1CCCC1` is -0.16; for `CCC(C)c1ccc2oc(-c3ccc(NC(=O)Cn4cnc5c(=O)n(C)c(=O)n(C)c54)cc3)nc2c1` (stereo not drawn) it is 1.46; for `CC1CN(c2cc(=O)n(-c3cccc(Br)c3)c(=O)[nH]2)CC(C)O1` (stereo not drawn) it is -0.415. Take `CCS(=O)(=O)c1nc2ccccc2n1CC(=O)N1CCOCC1`: the z-score amounted to 0.0592. `O=C(Nc1ccccc1C(=O)OCn1nnc2ccccc2c1=O)c1ccco1`: the z-score was -0.216. The figure for `CC(C)(C)NS(=O)(=O)c1cnc(Cl)c(Cl)c1` is -0.154.

As to `O=C(CC(Nc1ccc(F)cc1)C(=O)O)c1ccccc1` (stereo not drawn), the z-score came out at 0.144. Regarding `CN(C)CCCNCCCNC(=O)/C(=N\O)c1ccccn1`, the z-score was -0.161. The figure for `O=C(COC(=O)c1ccccc1C(=O)c1ccccc1)c1ccco1` is 0.281. For `CCCCNC(=O)CNC(=S)N(Cc1cc(OC)c(OC)c(OC)c1)C1CCCC1`, the z-score was -0.231. Under `CC(C)Cc1nc2oc3c(NCCCN4CCOCC4)ncnc3c2c2c1CCC2` stands 0.0144; under `COc1ccc(NC(=O)c2ccc3snnc3c2)cc1`, -0.112; under `COC(C(=O)NC(C(C)C)C(C)C)c1ccccc1` (stereo not drawn), -0.183. Under `COc1ccc(C2C(C(=O)Nc3ccccc3OC)=C(C)Nc3nnnn32)c(OC)c1` (stereo not drawn) stands 0.0984; under `CC(=O)N1CCN(C(=O)Nc2cccc(C(F)(F)F)c2)CC1`, -0.172; under `CCN1CCC(NC(=O)c2cc(OC)c(OC)cc2OC)CC1`, 0.0595. Under `O=C(Nc1ccccc1C(=O)N/N=C/c1ccc(F)cc1)c1ccccc1Br` stands -0.184; under `CCOC(=O)C1C(=O)C=C(c2ccc(Br)cc2)CC1c1ccco1` (stereo not drawn), -0.187. The molecule `O=S(=O)(c1ccc(Cl)c(NC(=S)N/N=C/c2ccc(O)cc2)c1)N1CCOCC1` gave a z-score of -1.78. The figure for `Cc1cc(NC(=O)CCCN2C(=O)/C(=C/c3cccs3)SC2=S)no1` is 0.155. Under `O=C(CN1C2=NCCCN2c2ccccc21)c1ccc(Cl)cc1Cl` stands 0.287; under `O=C(CSc1nnc(-c2cccs2)o1)N1CCCCC1`, 0.00857; under `O=C(NCc1ccco1)c1ccc(Cn2c(=O)c3ccccc3n(Cc3ccc(Cl)cc3)c2=O)cc1`, -0.135. With `CCOC(=O)/C(C#N)=C1/C=CN(c2ccc(C)cc2)C=N1`, the z-score was -0.217. Under `COc1cccc(OCC(=O)O/N=C(\N)c2ccc(OC)c(OC)c2)c1` stands -0.659; under `CC(CC(=O)NC(C)c1ccc2c(c1)OCCO2)c1ccccc1` (stereo not drawn), -0.322.

For `O=C(CSc1nnc(-c2cccnc2)n1Cc1ccco1)c1ccc(Cl)c(Cl)c1`, the z-score was -1.8. In the case of `CCOc1ccc(NC(=O)CSCc2cnn(-c3ccccc3)c2-n2cccc2)cc1`, the z-score is -0.0203. Turning to `CCN(CC)CCN1CCn2c3c(c4cc(C)ccc42)CCCC31` (stereo not drawn), the z-score turned out to be 1.08.

`Cn1c(=O)c2c(ncn2CC(O)CNc2ccc(Br)cc2)n(C)c1=O` (stereo not drawn) had a z-score of -0.214. The figure for `COc1ccc(CC2C(=O)OC(C)(C)OC2=O)cc1` is 1.11; for `O=C(CCCC(=O)N1CCN(c2ccc([N+](=O)[O-])cc2)CC1)c1ccccc1` it is -0.912. Under `CCSc1sccc1C1C(C#N)=C(N)N(c2cccnc2)C2=C1C(=O)CCC2` (stereo not drawn) stands -0.331; under `COc1ccc(Cn2nnnc2C(c2cccnc2)N2CCN(c3ccc(O)cc3)CC2)cc1` (stereo not drawn), 0.179; under `C/C(=N/N=C1/NC(=O)CC(C(=O)O)S1)c1ccccc1` (stereo not drawn), 0.153. The figure for `CNc1nc(-c2ccccn2)nnc1-c1ccccc1` is 0.56; for `COCCn1c(C2CCCCC2)nc2sc3ccccc3c(=O)c2c1=O` it is 0.498; for `N#C/C(=C\c1cccs1)C(=O)NCc1ccco1` it is -0.284.

Consider `Cc1cccc(C(=O)Nc2ccc(C(=O)/C=C/c3cccs3)cc2)c1`, for which the z-score was -0.291.

The molecule `O=C(N/N=C/C1=C(N2CCOCC2)C(=C\c2ccccc2)/CC1)Nc1ccccc1` came in with a z-score of -0.122. `CC(C)C(NC(=O)c1ccco1)C(=O)NCC(c1ccco1)N(C)C` (stereo not drawn): the z-score was -0.23. Turning to `CS(=O)(=O)N1CCC(C(=O)Nc2c(F)cccc2F)CC1`, the z-score came to 0.93. Under `Cc1cc2n(n1)SC(Nc1cc(Cl)ccc1Cl)N2` (stereo not drawn) stands -0.803; under `C=CCn1c(CCCNC(=O)CCC)nc2ccccc21`, -0.191.

`O=C(O)C1CCCCC1C(=O)Nc1ccccc1C(=O)N1CCN(c2ccc(F)cc2)CC1` (stereo not drawn): the z-score was -0.207. Molecule `CCCCCN1CC(O)=C(c2ccccc2)C1=N` returned a z-score of 0.125. Regarding `Cc1c(C#N)c2ccccc2n1CC(=O)NCC1CCCO1` (stereo not drawn), the z-score came to 0.569. Under `CCOc1ccccc1OCCCC(=O)NC1CCCc2ccccc21` (stereo not drawn) stands -0.245; under `N#Cc1sc2nc(C3CC3)cc(-c3ccccc3)c2c1N`, -0.157.

Consider `C=CCNc1nnc(C)c2ccccc12`, for which the z-score amounted to 0.0217.

`O=C(C1CC(c2ccc(F)cc2)=NO1)N1CCN(c2ccccc2)CC1` (stereo not drawn): the z-score is -0.045. Under `O=C(Nc1ccc(F)c(F)c1)NC1CCCCC1` stands active: 3.01; under `CN1c2ccccc2N(C)C1(C)c1ccccc1`, -0.164. The figure for `O=[N+]([O-])c1ccc(N2CCCC2)cc1NC1CC1` is -0.752. Molecule `Nc1ccc2c(c1)ncn2CCCn1cnc2cc(N)ccc21` gave a z-score of -0.064. Under `Cc1ccccc1CNC(=O)c1ccccc1N` stands 0.364. For the molecule `O=C(CNC(=S)N(CCCN1CCOCC1)Cc1cccs1)NC1CC1`, the z-score amounted to 0.603. The figure for `O=C(CSc1nnc(CNC(=O)c2c(F)cccc2Cl)o1)NCc1ccc2c(c1)OCO2` is -0.485; for `CCn1c(SCC(=O)N2CCN(c3cccc(Cl)c3)CC2)nc2ccccc2c1=O` it is -1.27; for `COc1ccc(-n2c(CCc3ccccc3)nnc2SCC(=O)c2ccc(Cl)cc2)cc1` it is -0.265.

For `CCCOc1ccccc1C1NC(=O)NC(C)=C1C(=O)OCCOC(C)C` (stereo not drawn), the z-score was -0.228. The figure for `CCOc1ccc(S(=O)(=O)N/N=C2/CCCC(=O)C2)cc1` is -0.192.

Molecule `C/C(CC(=O)NCc1ccco1)=N\NC(=O)COc1ccc(C)cc1` showed a z-score of -0.096.

`Cc1ccc(CNC(=O)c2ccc(N3CCCC3=O)cc2)cc1` had a z-score of -0.00989. Under `N#Cc1ccc(NC(=O)COC(=O)CCc2ccc(S(=O)(=O)N3CCCCC3)cc2)cc1` stands 0.758; under `Cc1ccc(C2=Nc3ccccc3NC(C)(c3ccc(C)o3)C2)o1` (stereo not drawn), -0.367. For the molecule `CCCN1CCc2[nH]c(=S)[nH]c(=O)c2C1`, the z-score is -0.17. Take `CC(C)CC(=O)NC(NC(=S)Nc1cccc2cccnc12)C(Cl)(Cl)Cl` (stereo not drawn): the z-score was determined as 0.0214. In the case of `O=C(O)CCC(=O)NNC(=O)c1cccc(Cl)c1`, the z-score is -0.0693.

On to `COc1ccccc1NC(=O)N(Cc1ccco1)Cc1cc2ccc(C)c(C)c2[nH]c1=O`, for which the z-score was -1.77. Consider `CCSCCOC(=O)C1=C(C)NC(=O)NC1c1ccc2c(c1)OCO2` (stereo not drawn), for which the z-score was -0.281.

For `COc1ccccc1NC(=O)c1ccc(NC(=O)COC(=O)C2CC2C)cc1` (stereo not drawn), the z-score is -0.322. The figure for `CNC(=O)N(O)C1N(NC(=O)Nc2ccccc2)C(=S)SC1(C)C` (stereo not drawn) is -0.139. The figure for `CC1(c2ccccc2)CC(C)(C)N(C(=O)c2cc([N+](=O)[O-])cc([N+](=O)[O-])c2)c2ccccc21` (stereo not drawn) is -0.215. Regarding `CCNC(=O)CCSc1nc2cc(Cl)ccc2o1`, the z-score stood at 0.975.

`Cc1ccccc1CN1CCN(C(=O)c2cccc(F)c2)CC1` showed a z-score of 0.283. Under `COc1ccc2cc3c(N)nn(C(=O)c4ccc(Cl)c([N+](=O)[O-])c4)c3nc2c1` stands 0.25.
